In all, about 33,000 sequences were measured (“E-score (-0.5 to 0.5)”: median about -0.053, highest 2% from about 0.37 on). Some of the results follow.
Molecular target: Hap1 (UniProt P0CE41)
Experiment: PBM E-score (8-mer binding enrichment) (E-score (-0.5 to 0.5)); higher = stronger / more preferred TF binding; most listed sequences are background and not binding sites
Details: protein concentration: 200 nM; construct: GST-DNA-binding domain
Outline: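 Universal all-10-mer Agilent arrays, fresh or stripped once, were converted to double-stranded form by primer extension. GST-tagged yeast transcription factors from PURExpress in vitro transcription/translation, full-length or DNA-binding domain only, were applied at about 100-200 nM and detected with fluorescent anti-GST. After masliner normalisation, the Universal PBM Analysis Suite scored each ungapped eight-base word together with its reverse complement by E-score.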

Sequence of UniProt P0CE41 (P0CE41 whole entry): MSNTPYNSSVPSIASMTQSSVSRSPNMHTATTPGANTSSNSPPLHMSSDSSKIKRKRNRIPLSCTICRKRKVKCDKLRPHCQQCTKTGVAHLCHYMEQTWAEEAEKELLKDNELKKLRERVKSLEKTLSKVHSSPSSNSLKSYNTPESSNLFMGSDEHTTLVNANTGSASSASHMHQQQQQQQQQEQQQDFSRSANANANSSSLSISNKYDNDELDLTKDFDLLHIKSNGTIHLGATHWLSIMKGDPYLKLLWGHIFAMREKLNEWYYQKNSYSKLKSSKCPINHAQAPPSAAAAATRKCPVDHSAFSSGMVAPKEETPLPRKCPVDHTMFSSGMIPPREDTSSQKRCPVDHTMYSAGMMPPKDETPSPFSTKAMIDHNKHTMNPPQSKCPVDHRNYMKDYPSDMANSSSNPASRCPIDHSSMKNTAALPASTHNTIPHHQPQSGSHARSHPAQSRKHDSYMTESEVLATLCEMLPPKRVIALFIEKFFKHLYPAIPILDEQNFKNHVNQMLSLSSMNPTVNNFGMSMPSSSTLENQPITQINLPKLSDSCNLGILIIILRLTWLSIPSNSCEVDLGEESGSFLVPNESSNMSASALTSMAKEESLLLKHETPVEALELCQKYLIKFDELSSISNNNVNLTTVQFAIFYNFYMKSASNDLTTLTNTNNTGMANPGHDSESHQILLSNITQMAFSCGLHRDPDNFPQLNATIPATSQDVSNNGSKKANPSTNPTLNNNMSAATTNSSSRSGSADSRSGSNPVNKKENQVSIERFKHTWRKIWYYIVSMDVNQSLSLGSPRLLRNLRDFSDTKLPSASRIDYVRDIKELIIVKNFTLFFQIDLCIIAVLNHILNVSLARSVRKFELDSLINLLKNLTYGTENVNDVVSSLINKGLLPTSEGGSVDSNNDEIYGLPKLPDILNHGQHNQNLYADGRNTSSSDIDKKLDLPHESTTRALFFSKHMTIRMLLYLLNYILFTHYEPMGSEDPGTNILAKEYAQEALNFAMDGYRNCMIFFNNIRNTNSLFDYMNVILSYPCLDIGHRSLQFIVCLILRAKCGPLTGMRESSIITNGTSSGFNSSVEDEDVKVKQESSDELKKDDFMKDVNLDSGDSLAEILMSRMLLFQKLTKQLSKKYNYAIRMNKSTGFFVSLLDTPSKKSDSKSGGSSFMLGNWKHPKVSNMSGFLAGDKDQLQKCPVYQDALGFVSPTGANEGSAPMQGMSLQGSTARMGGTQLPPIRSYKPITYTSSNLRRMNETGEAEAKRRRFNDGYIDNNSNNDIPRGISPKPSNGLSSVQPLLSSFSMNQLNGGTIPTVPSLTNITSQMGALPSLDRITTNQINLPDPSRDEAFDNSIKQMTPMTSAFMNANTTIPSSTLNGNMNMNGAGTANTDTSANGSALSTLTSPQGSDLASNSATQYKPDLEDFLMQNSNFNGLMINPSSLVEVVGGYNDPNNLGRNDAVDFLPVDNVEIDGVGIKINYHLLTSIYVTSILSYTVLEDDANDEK

Sequence	PBM E-score
ATTATGAC	0.0596
CGGGACCC	0.153
CTTGAGGA	-0.0799
CAGCTAGG	-0.235
CACGTCTG	-0.107
ACGTCACA	-0.23
CGATATAG	0.21
CGGTGAAC	0.0875
GGGCGACC	0.0377
GCGGAACA	0.22
AAATACAC	-0.135
CAACTGCA	-0.318
CCTCAGGC	-0.0905
ACCCTTAC	-0.104
CGATAAAA	0.382
CTTTCAAC	-0.15
AACCTTGC	-0.119
GTCGTCCA	0.0593
ACATATGA	-0.146
CGGACTCC	0.306
AGGGTTAG	-0.155
AAGACCGG	0.333
AGGTCATA	-0.13
GGACTAAC	0.239
CAGTCGAG	-0.184

Sequence	PBM E-score
ACATAAAT	-0.0976
AAAGAATG	-0.0307
GACCTGGA	-0.021
AACCTCCT	-0.237
GCCCCACC	0.0115
CAATCCGA	0.241
AGTGGCCC	0.182
AGCCTAAC	-0.0527
AGAAGATC	0.0834
CCCCGGGA	0.348
ACTACCCA	-0.204
CCTGCGGC	0.059
AAACCACC	0.023
CCGAGCTC	0.266
AGCAACAT	-0.111
CCAGTGCA	-0.32
TTACAAAA	-0.0538
ATAATCAC	-0.0425
GGCCCAGA	0.0578
AAGCCGAT	0.399
CCGTGCTC	0.144
CCTCGTCC	0.0893
CCTCTGAA	-0.0581
GGTATGAC	0.0931
ATATGTTC	0.13

Sequence	PBM E-score
CATGCTGG	-0.321
CTCTGATC	-0.225
ATCCAAGA	-0.0776
CGCCAAAA	-0.0116
ACTTCGAC	-0.105
GACGAGCA	-0.214
ACGACAGA	-0.184
GTGGAATA	-0.0626
ACTCCGCG	0.371
TGAGATAA	0.0866
TATTCCAA	-0.162
TCGACCAA	-0.331
GTGGCGTA	-0.0342
GCGTAGAC	-0.131
CTGTTACC	-0.0599
ACCGGCGC	0.267
ATGTTGTG	-0.222
CATTCTTA	0.0589
AGGAACTG	-0.0516
ACCGCCAA	0.0105
GGCAGCCA	-0.0898
CCTTCTTA	-0.138
CAGATCCC	0.0493
ATAAGATC	-0.174
CACAACCG	0.145

Sequence	PBM E-score
CTACTTGA	-0.243
ATGTGGAC	-0.149
GCTCTAGA	-0.0593
ATGGACGA	0.0824
ACCAAAAC	-0.0677
ACCGGGAG	0.26
ATGTCTCC	0.228
TAACACTA	-0.0807
GGACCGGA	0.406
AGGACCGG	0.318
GAATATCA	0.079
CGTGAAGA	-0.0699
CTGGACGC	-0.168
CCTCCAGC	-0.214
ATATACAT	-0.035
GAAACTAC	0.023
CATTGTAG	-0.16
CTTGTTCC	-0.00285
ATTGTTTA	-0.209
GAACACTA	-0.0849
AGGTATTG	-0.104
ACGACCTC	0.0239
CTGTGAAA	-0.195
ATAGTTCG	0.0165
CAGGCTAG	-0.279

Sequence	PBM E-score
ACGCACGA	-0.113
CGTGTCAG	0.0219
AAATTCCT	0.099
ACAGTCAA	-0.214
ACGTTACT	-0.0694
CATTGTCG	-0.00901
TCAAAGCA	-0.0871
AACACAAA	-0.111
GCGAGCTA	0.0832
AGAGTAAA	-0.211
ATAGTAAC	-0.0441
GGACGCAA	0.229
ATGCGTCC	0.157
CGCTACGA	0.111
CGTGCCCC	-0.175
CTCGAACC	-0.0843
CACAGGAG	-0.225
CTGTGTGC	-0.273
TAACAGTA	-0.172
CCCGACCC	0.167
ACTATATA	-0.024
ACCGAGTC	0.0947
ACCGACAG	0.289
CTGATAAA	-0.113
AGGCCCAG	-0.157

Sequence	PBM E-score
GATAGCCA	-0.133
CATGCTAC	-0.155
GGCGGCCA	-0.0954
TATACTAA	-0.0609
ATATTCGG	0.223
ATTTACGC	0.0908
GCTTGCTA	-0.131
AGTTGAGA	-0.131
GGCGCCAA	0.0576
CGTCAGTC	0.0975
AAGTTTCA	-0.0722
CGCACACA	-0.0394
ATCGTCTG	-0.137
CCCGCGGG	0.318
GGACCGTA	0.0951
ACGTGCCA	-0.0995
GCACAGAA	-0.147
AGACGATC	-0.229
ACTGGGAC	-0.18
CCGGAGTA	0.435
CTGCGTTC	-0.0106
CATACCAA	-0.0543
GCACAGCA	-0.119
AACAACGT	-0.124
AGAATCAT	-0.259

Sequence	PBM E-score
CTCGAGCA	-0.185
CGGCCTTA	0.439
ACAAGTGC	-0.278
CTTCATCC	0.0444
ACAGATGA	-0.243
AACACCCT	-0.0622
ACGGGGAA	0.158
AAACCAGA	-0.24
AGCGATGC	-0.178
GCGTGGCC	-0.0847
ATTGGTAA	-0.0364
CAGAAACA	-0.181
GCAAACTA	-0.261
AATCCGAT	0.401
GGACTGAA	0.00891
CCAGTGTC	-0.196
ACACCTAA	-0.116
AGCGGTTC	-0.0758
ACGGAATG	0.108
TCATAAAA	0.00696
CCGCGGGC	0.306
CTAAATGA	-0.178
